Source: article PMC6683012
No constants are given. Whether binding was seen depends on the method and setting. Binding seen in cells or lysates may run through a third protein. Some results given as binding are weak or reduced against the parent protein; the word gives no strength. Tags and fused reporters may be left off the sequences shown.

T1: cYFP-PIP2;4 (Arabidopsis) (UniProt Q9FF53)
T1 sequence: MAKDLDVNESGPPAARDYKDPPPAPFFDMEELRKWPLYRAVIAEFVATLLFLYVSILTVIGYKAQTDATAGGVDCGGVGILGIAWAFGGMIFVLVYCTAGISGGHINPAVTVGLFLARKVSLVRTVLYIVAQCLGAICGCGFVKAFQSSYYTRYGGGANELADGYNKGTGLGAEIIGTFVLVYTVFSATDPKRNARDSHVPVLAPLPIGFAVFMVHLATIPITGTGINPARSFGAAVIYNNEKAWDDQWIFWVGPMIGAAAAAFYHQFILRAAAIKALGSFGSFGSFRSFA

T2: SIRK1-cYFP (Arabidopsis) (UniProt Q0WR59)
T2 sequence: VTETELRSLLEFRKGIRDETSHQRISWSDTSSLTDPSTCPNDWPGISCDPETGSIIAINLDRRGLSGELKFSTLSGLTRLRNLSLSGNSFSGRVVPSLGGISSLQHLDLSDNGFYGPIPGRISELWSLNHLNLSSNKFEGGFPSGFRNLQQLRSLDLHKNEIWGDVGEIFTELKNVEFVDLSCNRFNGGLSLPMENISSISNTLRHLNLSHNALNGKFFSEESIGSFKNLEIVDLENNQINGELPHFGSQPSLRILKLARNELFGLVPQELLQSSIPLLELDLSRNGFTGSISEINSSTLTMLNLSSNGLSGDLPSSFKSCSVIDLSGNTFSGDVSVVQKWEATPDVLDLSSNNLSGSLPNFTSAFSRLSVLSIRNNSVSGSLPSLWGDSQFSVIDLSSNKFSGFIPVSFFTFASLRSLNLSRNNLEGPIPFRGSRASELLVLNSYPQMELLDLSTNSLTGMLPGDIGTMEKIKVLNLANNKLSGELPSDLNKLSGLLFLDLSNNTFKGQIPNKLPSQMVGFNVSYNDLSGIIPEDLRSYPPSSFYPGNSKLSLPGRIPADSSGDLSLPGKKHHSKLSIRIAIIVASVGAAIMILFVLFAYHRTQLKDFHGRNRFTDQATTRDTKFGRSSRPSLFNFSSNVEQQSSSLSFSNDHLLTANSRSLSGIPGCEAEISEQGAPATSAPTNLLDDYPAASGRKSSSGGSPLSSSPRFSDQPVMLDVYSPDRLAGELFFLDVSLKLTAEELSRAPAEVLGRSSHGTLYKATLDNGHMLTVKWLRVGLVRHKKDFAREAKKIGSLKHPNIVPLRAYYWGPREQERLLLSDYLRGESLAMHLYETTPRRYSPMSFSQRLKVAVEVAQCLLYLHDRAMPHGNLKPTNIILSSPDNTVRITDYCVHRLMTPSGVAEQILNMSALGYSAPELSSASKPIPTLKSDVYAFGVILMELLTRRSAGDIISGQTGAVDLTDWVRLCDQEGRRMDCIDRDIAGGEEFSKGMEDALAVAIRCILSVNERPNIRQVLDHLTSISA

T3: SIRK1S744A-cYFP (Arabidopsis) (UniProt Q0WR59)
T3 sequence: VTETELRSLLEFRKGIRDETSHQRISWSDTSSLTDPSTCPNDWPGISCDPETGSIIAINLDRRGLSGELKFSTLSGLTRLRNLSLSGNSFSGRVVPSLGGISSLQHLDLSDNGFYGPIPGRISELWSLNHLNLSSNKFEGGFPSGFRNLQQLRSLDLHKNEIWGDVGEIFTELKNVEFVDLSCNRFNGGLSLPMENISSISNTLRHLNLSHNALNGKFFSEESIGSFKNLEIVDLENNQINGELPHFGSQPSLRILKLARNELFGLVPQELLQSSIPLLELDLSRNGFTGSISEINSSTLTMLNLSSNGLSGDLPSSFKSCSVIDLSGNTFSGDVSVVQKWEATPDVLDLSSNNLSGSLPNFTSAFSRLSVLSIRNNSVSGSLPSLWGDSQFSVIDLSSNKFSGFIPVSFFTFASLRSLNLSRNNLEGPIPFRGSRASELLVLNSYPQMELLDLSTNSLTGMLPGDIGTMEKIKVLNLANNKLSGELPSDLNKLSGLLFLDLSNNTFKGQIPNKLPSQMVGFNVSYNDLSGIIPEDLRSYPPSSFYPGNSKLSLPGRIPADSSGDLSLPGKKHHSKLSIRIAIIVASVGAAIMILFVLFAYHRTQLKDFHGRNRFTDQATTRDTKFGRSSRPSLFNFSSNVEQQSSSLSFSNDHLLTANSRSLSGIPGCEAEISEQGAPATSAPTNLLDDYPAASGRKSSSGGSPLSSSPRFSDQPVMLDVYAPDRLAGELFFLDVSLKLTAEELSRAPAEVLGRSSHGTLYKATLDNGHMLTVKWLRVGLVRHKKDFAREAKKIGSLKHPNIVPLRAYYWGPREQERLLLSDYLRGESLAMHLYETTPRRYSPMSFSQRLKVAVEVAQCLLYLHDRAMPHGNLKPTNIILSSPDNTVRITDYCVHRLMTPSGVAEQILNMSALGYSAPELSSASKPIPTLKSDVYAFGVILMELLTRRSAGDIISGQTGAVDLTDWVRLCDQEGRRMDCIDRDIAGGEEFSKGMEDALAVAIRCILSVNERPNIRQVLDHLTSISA

T4: SIRK1S744D-cYFP (Arabidopsis) (UniProt Q0WR59)
T4 sequence: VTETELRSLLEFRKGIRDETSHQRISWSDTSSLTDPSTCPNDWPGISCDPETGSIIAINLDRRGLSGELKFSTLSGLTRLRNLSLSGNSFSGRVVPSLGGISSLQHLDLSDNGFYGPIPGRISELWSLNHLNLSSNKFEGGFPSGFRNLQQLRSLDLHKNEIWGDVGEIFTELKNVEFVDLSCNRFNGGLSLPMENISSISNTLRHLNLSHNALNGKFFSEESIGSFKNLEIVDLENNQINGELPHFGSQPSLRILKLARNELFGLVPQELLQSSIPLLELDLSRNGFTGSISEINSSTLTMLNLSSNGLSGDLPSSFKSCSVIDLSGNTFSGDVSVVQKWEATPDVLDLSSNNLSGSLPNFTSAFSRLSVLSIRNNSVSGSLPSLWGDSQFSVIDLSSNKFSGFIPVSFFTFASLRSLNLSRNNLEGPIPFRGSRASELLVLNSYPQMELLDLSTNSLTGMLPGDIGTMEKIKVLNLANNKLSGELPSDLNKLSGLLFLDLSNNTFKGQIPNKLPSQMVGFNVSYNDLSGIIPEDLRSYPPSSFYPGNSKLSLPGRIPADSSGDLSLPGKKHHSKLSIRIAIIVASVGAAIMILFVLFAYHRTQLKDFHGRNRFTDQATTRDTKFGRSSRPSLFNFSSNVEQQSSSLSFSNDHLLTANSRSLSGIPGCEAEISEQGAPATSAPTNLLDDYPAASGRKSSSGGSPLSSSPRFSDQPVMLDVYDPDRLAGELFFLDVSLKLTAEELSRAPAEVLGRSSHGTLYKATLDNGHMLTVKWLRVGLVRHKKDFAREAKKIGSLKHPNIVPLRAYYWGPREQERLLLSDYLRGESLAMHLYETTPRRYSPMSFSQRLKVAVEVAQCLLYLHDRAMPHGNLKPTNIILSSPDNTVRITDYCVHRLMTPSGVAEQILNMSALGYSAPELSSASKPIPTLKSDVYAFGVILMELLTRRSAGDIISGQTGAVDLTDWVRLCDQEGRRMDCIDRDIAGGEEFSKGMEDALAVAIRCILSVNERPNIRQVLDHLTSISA


Assays:
Assay in all cases: split reporter; ratiometric BiFC (rBiFC 2in1 vectors), transient expression in Nicotiana benthamiana leaves for 2 days; YFP/RFP ratio from 10-30 cells; ratios greater than 1 taken as interaction
[1] = target: T1, cYFP-PIP2;4 (Arabidopsis)
SIRK1-cYFP (Arabidopsis) = target: T2, SIRK1-cYFP (Arabidopsis)
[2] = target: T3, SIRK1S744A-cYFP (Arabidopsis)
[3] = target: T4, SIRK1S744D-cYFP (Arabidopsis)

Binder	binding [1]	binding (SIRK1-cYFP (Arabidopsis))	binding [2]	binding [3]
QSK1-nYFP (receptor, UniProt Q9M8T0 24-627) SDLESDRRALLAVRNSVRGRPLLWNMSASSPCNWHGVHCDAGRVTALRLPGSGLFGSLPIGGIGNLTQLKTLSLRFNSLSGPIPSDFSNLVLLRYLYLQGNAFSGEIPSLLFTLPSIIRINLGENKFSGRIPDNVNSATRLVTLYLERNQLSGPIPEITLPLQQFNVSSNQLNGSIPSSLSSWPRTAFEGNTLCGKPLDTCEAESPNGGDAGGPNTPPEKKDSDKLSAGAIVGIVIGCVVGLLLLLLILFCLCRKRKKEENVPSRNVEAPVAAATSSAAIPKETVVVVPPAKATGSESGAVNKDLTFFVKSFGEFDLDGLLKASAEVLGKGTVGSSYKASFEHGLVVAVKRLRDVVVPEKEFRERLHVLGSMSHANLVTLIAYYFSRDEKLLVFEYMSKGSLSAILHGNKGNGRTPLNWETRAGIALGAARAISYLHSRDGTTSHGNIKSSNILLSDSYEAKVSDYGLAPIISSTSAPNRIDGYRAPEITDARKISQKADVYSFGVLILELLTGKSPTHQQLNEEGVDLPRWVQSVTEQQTPSDVLDPELTRYQPEGNENIIRLLKIGMSCTAQFPDSRPSMAEVTRLIEEVSHSSGSPNPVSD	binds	binds	no binding	binds
QSK2-nYFP (receptor, UniProt Q9FMD7 24-625) DLEADRRALIALRDGVHGRPLLWNLTAPPCTWGGVQCESGRVTALRLPGVGLSGPLPIAIGNLTKLETLSFRFNALNGPLPPDFANLTLLRYLYLQGNAFSGEIPSFLFTLPNIIRINLAQNNFLGRIPDNVNSATRLATLYLQDNQLTGPIPEIKIKLQQFNVSSNQLNGSIPDPLSGMPKTAFLGNLLCGKPLDACPVNGTGNGTVTPGGKGKSDKLSAGAIVGIVIGCFVLLLVLFLIVFCLCRKKKKEQVVQSRSIEAAPVPTSSAAVAKESNGPPAVVANGASENGVSKNPAAVSKDLTFFVKSFGEFDLDGLLKASAEVLGKGTFGSSYKASFDHGLVVAVKRLRDVVVPEKEFREKLQVLGSISHANLVTLIAYYFSRDEKLVVFEYMSRGSLSALLHGNKGSGRSPLNWETRANIALGAARAISYLHSRDATTSHGNIKSSNILLSESFEAKVSDYCLAPMISPTSTPNRIDGYRAPEVTDARKISQKADVYSFGVLILELLTGKSPTHQQLHEEGVDLPRWVSSITEQQSPSDVFDPELTRYQSDSNENMIRLLNIGISCTTQYPDSRPTMPEVTRLIEEVSRSPASPGPLSD	binds	binds	no binding	–
